SMILES strings stand for the structures. Among all 150,000 compounds or so, about 540 (0.36%) showed an effect of 50% or more. The list shows a part of the results.

Broadly, the % Inhibition is the change of the read-out against control, counted positive when it falls.

In the test the test system is Plasmodium falciparum. Kind of test: Primary screen in NF54 nanoGlo assay, in single point, at 2uM, 72h; a lower Z score goes with more inhibition. Type of test: functional, Erythrocyte. The settings on record: timepoint 72 hour.
`CC[C@H](C)OCC(=O)N1CCC(O)(COC)CC1`: the “% Inhibition” value was -3% and the Z score was 0.37.

With `COc1ccc2c(c1)CC[C@H](NCc1ccc(N3CCCC3=O)cc1)C2`, the “% Inhibition” value is -13% and the Z score worked out at 2.21.

On to `COCCN(Cc1ccc(OC)c(OS(=O)(=O)c2ccc(F)cc2)c1)C(=O)Nc1ccc(C)cc1`, for which the “% Inhibition” value was -14% and the Z score is recorded as 2.46.

Turning to `O=C(N[C@H]1CCN(c2nnc(C3CCC3)o2)C1)OCc1ccccc1`, the “% Inhibition” value was determined as 2% and the Z score is -0.17.

For `CCS(=O)(=O)Oc1cccc(CN(CC2CC2)C(C)=O)c1`, the “% Inhibition” value turned out to be 0% and the Z score is on record as -0.03.

For `OCC1CCCCC1NCc1nc(C2CCCC2)no1` (centres undefined), the “% Inhibition” value is listed as 1% and the Z score is recorded as -0.14.

Turning to `NC1=NC2(CCCCC2)N(c2ccccc2)C(N)=N1`, the “% Inhibition” value is given as 11% and the Z score is -1.59.

For `Cn1c(CN2CCCC2)nnc1[C@H]1CCCN(c2ncccc2Cl)C1`, the “% Inhibition” value is listed as -13% and the Z score came to 1.7.

As to `CCc1oc(C(=O)Nc2ncccc2OCc2cccnc2)cc1C`, the “% Inhibition” value is given as -3% and the Z score was 0.31.

On to `CCn1cc(CNC(=O)c2ccc3nc(-c4cccc(OC)c4)oc3c2)cn1`, for which the “% Inhibition” value was -23% and the Z score is given as 1.99.

In the case of `Cc1ncoc1C(=O)N[C@H]1CC(=O)N(Cc2cccc3ccccc23)C1`, the “% Inhibition” value is -8% and the Z score came to 1.37.

Consider `Cn1nncc1S(=O)(=O)NC1(Cc2cccc(F)c2)CCC1`, for which the “% Inhibition” value was -10% and the Z score is listed as 1.63.

For the molecule `O=C(OC[C@H]1CCN(c2ccccc2)C1)c1ccc2n[nH]c(=O)n2c1`, the “% Inhibition” value is given as -9% and the Z score was 1.44.

As to `N#CCC[C@H](NCC(F)(F)F)c1ccccc1`, the “% Inhibition” value is -8% and the Z score amounted to 0.7.

For the molecule `Cc1ccc2oc(N(C)Cc3noc(C)n3)nc2c1`, the “% Inhibition” value was found to be 1% and the Z score is -0.11.

Take `COc1cc(=O)n(C)cc1C(=O)N1CCC(Oc2cccc3cccnc23)CC1`: the “% Inhibition” value is given as -9% and the Z score stood at 1.72.

As for `Nc1cccc(-c2nnc3n2CCC3)c1`, the “% Inhibition” value is listed as -15% and the Z score was 2.12.

Consider `Cc1ccc(-n2nc(C(=O)Nc3ccc(F)cc3)c(=O)n(Cc3ccc(C(F)(F)F)cc3)c2=O)cc1`, for which the “% Inhibition” value is on record as -5% and the Z score is listed as 0.7.

With `COc1cccc(C(=O)N(C)CCc2noc(-c3ccc(C(=O)N4CCCCC4)cc3)n2)c1`, the “% Inhibition” value is -14% and the Z score came to 1.29.

Regarding `CC1CN(C(=O)c2nc3cccnc3s2)CC(c2ccsc2)O1` (centres undefined), the “% Inhibition” value is given as -14% and the Z score is on record as 1.4.

As for `Cc1ccoc1C(=O)N(CC1CCN(C2Cc3ccccc3C2)CC1)C[C@H]1CCCO1`, the “% Inhibition” value was determined as 2% and the Z score is -0.44.

On to `COc1ccc(OC)c(-c2cc(C(=O)NCc3cc(-c4cnccn4)nn3C)n(C)n2)c1`, for which the “% Inhibition” value was 17% and the Z score is given as -2.17.

For `O=C(O)[C@H]1CN(Cc2cccc3ncccc23)C[C@@H]1c1cccnc1`, the “% Inhibition” value was -11% and the Z score came to 2.2.

For the molecule `CC[C@@H](CO)N(Cc1ccc(C)s1)C(=O)Cc1ccc2c(c1)OCO2`, the “% Inhibition” value is on record as 4% and the Z score was -0.49.

On to `Cc1cc(S(=O)(=O)N(C)C[C@H]2CCN(C)C2)c(F)cc1F`, for which the “% Inhibition” value was -4% and the Z score is on record as 0.37.

As to `C[C@@]1(O)CCN(C(=O)C2CCOCC2)[C@@H](c2ccccc2)[C@@H]1NC(=O)c1ccc(F)cc1`, the “% Inhibition” value is listed as -7% and the Z score stood at 1.08.

In the case of `Cc1nc(CN2C[C@H]3CN(C4CCCCC4)C[C@@]3(C(=O)O)C2)cs1`, the “% Inhibition” value is reported as -4% and the Z score came out at 0.68.

Consider `COc1ccc([C@@H]2CCCN2Cc2cnc(OC)nc2C)nc1`, for which the “% Inhibition” value is listed as -17% and the Z score is reported as 3.66.

For `CC(C)OCCS(=O)(=O)N(C)Cc1cscn1`, the “% Inhibition” value was -6% and the Z score came to 0.91.

Consider `CC[C@]1(C(=O)OC)N[C@@H](c2ccc(F)c(Cl)c2)[C@H]2C(=O)N(C)C(=O)[C@H]21`, for which the “% Inhibition” value is reported as -9% and the Z score turned out to be 0.81.

Consider `COc1cc2c(cc1OC)[C@H](C)N(c1ncnc3onc(C)c13)CC2`, for which the “% Inhibition” value is on record as -2% and the Z score is reported as 0.28.

In the case of `CC(NC(=O)C1COc2ccccc2O1)c1ccccn1` (centres undefined), the “% Inhibition” value is on record as 6% and the Z score was -0.72.

For `Cc1nc(N[C@H]2COC[C@@H]2O)ccc1Br`, the “% Inhibition” value was -10% and the Z score was 1.17.

On to `Cc1cn2cc(C(=O)NCCn3nc(C(F)(F)F)cc3C)ccc2n1`, for which the “% Inhibition” value is on record as -12% and the Z score is on record as 2.29.

For the molecule `O=C(Nc1ccc(N2CCCC2=O)cc1)N[C@H]1CCOC1`, the “% Inhibition” value was 4% and the Z score was -0.52.

On to `Cn1nc(-c2ccccn2)cc1NC(=O)N1CCN(C2CCCCC2)CC1`, for which the “% Inhibition” value is on record as -9% and the Z score turned out to be 1.13.

On to `O=C([C@H]1CC12CCNCC2)N(Cc1ccccc1)Cc1ccccc1`, for which the “% Inhibition” value is on record as -9% and the Z score is recorded as 0.89.

In the case of `O=C(c1noc2c1CCCC2)N1C[C@H]2COCC[C@@]2(O)[C@@H]2COCC[C@@H]21`, the “% Inhibition” value was -19% and the Z score is 1.84.

For `CCN(CC1CCOC1)C(=O)NCC(c1ccco1)N1CCCC1` (centres undefined), the “% Inhibition” value is listed as -5% and the Z score worked out at 0.53.

Consider `O=C(NCC1=CCCC1)NC[C@@H]1C[C@H](c2ccccc2)CO1`, for which the “% Inhibition” value is reported as -2% and the Z score is 0.27.

For `Cc1nnc(NC(=O)c2scnc2C2CC2)s1`, the “% Inhibition” value is 1% and the Z score is -0.07.

With `Cc1cc(C)cc(NC(=O)c2scc(-c3cccc(F)c3)c2S(=O)(=O)N(C)c2ccccc2)c1`, the “% Inhibition” value is recorded as -5% and the Z score was 0.89.

The values above are taken from ChEMBL document CHEMBL4888484, “Replenishing the malaria drug discovery pipeline: Screening and hit evaluation of the MMV Hit Generation Library 1 (HGL1) against asexual blood stage Plasmodium falciparum ,using a nano luciferase reporter read-out” (2022).
